Reference: PubChem BioAssay AID1476 (National Center for Advancing Translational Sciences (NCATS), 2009)
In all, about 200,000 compounds went through this assay and about 4,500 (2.2%) were called active. Inconclusive means that the source gave no clear call. Such entries were picked first, then a sample of the others. The call rests on the fitted dose curve; in most records, active means well fitted inhibition curve with a large enough effect; inconclusive means small, poorly fitted or top-dose-only effect, or effect the other way; inactive means flat fitted curve, though single readings scatter. Potencies of inconclusive entries are doubtful fits and often do not repeat.

Molecular target: Cruzipain (Trypanosoma cruzi) (UniProt P25779)
Test: qHTS Assay for Promiscuous and Specific Inhibitors of Cruzain (without detergent); further: nearly all actives have a fitted effect of over 40% in size;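 on max response, negative = inhibition: plate controls were enzyme without inhibitor for no effect and buffer without enzyme for full effect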
Settings: purified cruzain, Z-FR-AMC fluorescence, no detergent
Method in brief: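 Detergent-free condition (0.00005% Triton X-100) in acetate buffer pH 5.5 with DTT. 1.5 nM enzyme and compound were pre-mixed 15 min, then 2 uM Z-FR-AMC substrate added; reaction progress from fluorescence change between first and third reads (60 s).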
Potency means the concentration at half of the fitted maximal effect; tags describe the fitted curve by direction and shape.

Chain of UniProt P25779 (P25779 whole entry, looked up): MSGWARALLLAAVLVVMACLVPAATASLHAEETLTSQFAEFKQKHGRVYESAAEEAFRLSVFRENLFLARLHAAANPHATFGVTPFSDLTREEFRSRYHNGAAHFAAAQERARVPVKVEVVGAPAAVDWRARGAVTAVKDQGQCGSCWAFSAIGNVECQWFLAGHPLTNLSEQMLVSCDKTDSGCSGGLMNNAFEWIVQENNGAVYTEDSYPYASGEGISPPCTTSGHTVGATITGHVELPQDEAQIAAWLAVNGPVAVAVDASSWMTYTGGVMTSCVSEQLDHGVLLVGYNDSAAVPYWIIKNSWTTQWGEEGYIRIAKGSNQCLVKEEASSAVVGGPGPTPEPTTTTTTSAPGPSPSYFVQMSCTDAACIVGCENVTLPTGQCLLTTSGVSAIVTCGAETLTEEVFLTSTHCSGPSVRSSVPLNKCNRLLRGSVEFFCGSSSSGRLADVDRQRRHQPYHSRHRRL

For `CCCCCn1c(CN2CCN(c3cc(Cl)ccc3C)CC2)nc2c1c(=O)[nH]c(=O)n2C`, which Potency is on record?
The Potency was inconclusive: 15.8 µM [activator, partial curve].

For `CCn1c(CCC(=O)Nc2nc3c(s2)CCCC3)nc2cc(S(=O)(=O)N(C)C)ccc21`, which Potency is on record?
Its Potency is inconclusive: 31.6 µM [activator, single point].

With `Cc1ccc(CNC(=O)c2c[nH]c3ccc(S(=O)(=O)Nc4ccc(C(C)C)cc4)cc3c2=O)cc1` as the compound, how does the Potency read?
Its Potency is inconclusive: 39.8 µM [inhibitor, single point].

Which Potency does the source give for `Cc1cc(-c2ccc(N=Nc3ccc4c(S(=O)(=O)O)cc(S(=O)(=O)O)c(N)c4c3O)c(C)c2)ccc1N=Nc1ccc2c(S(=O)(=O)O)cc(S(=O)(=O)O)c(N)c2c1O` here?
The Potency was inconclusive: 15.8 µM [activator, single point].

For `COc1cc(CNc2ccccc2Oc2cc(=O)n(C)c(=O)n2C)cc(OC)c1OC`, which Potency is on record?
The Potency was inconclusive: 31.6 µM [activator, single point].

`COc1cc(NC(=O)C(NC(=O)C2CCC(C)CC2)C(C)C)cc(OC)c1OC` (stereo unspecified) was tested. Which max response, negative = inhibition did it give?
Its max response, negative = inhibition is inactive: 6.92%.

With `CCOC(=O)c1c(NC(=O)c2cccnc2)sc(C(C)=O)c1C` as the compound, how does the Potency read?
Its Potency is inconclusive: 39.8 µM [activator, single point].

How did the max response, negative = inhibition turn out when `COc1ccc(S(=O)(=O)NCC(c2cccs2)S(=O)(=O)c2ccc(C)cc2)cc1F` (stereo unspecified) was run?
The max response, negative = inhibition was inactive: -14.3%.

How did the Potency turn out when `CCOC(=O)c1c(C(=O)OCC)c(C)n(Cc2cc(OC)c(OC)c(OC)c2)c1C` was run?
The Potency was inconclusive: 31.6 µM [activator, partial curve].

Which max response, negative = inhibition does the source give for `CC1Cc2ccccc2N1S(=O)(=O)c1nnc(NC(=O)c2ccccc2Br)s1` (stereo unspecified) here?
The max response, negative = inhibition was inactive: 7.07%.

For `COCCOC(=O)C1=C(C)NC(SCC(=O)NC(C)(C)C)=C(C#N)C1c1ccco1` (stereo unspecified), which max response, negative = inhibition is on record?
Its max response, negative = inhibition is inactive: 11.6%.

For `COc1ccc(N2CCCn3c2nc2c3c(=O)n(CCCc3ccccc3)c(=O)n2C)cc1`, which Potency is on record?
Its Potency is inconclusive: 39.8 µM [activator, single point].

`Cc1ccc(CCNC(=O)c2nnc(Cc3cccc(F)c3)o2)cc1` was tested. Which Potency did it give?
Its Potency is inconclusive: 31.6 µM [activator, single point].

How did the max response, negative = inhibition turn out when `Cn1c(=O)c2c(nc(NCCc3ccccc3)n2Cc2cccc(Br)c2)n(C)c1=O` was run?
Its max response, negative = inhibition is inactive: -0.852%.

`Cc1ccc(-n2nnnc2SC(C(=O)c2c[nH]c3ccccc23)c2ccccc2)cc1` (stereo unspecified) was tested. Which Potency did it give?
Its Potency is inconclusive: 25.1 µM [inhibitor, single point].

Which Potency does the source give for `Cc1cc(/C=C2\SC(=S)NC2=O)c(C)n1C1CC1` here?
Its Potency is active: 15.8 µM.

How did the Potency turn out when `CCOc1ccc(OCC)c(NC(=O)CC2Oc3ccc(C)cc3NC2=O)c1` (stereo unspecified) was run?
Its Potency is inconclusive: 31.6 µM [inhibitor, single point].

With `COC(=O)c1c(C)oc2c1cc(NS(=O)(=O)c1c(C)cc(C)cc1C)c1ccccc12` as the compound, how does the Potency read?
The Potency was inconclusive: 10 µM [inhibitor, partial curve].

For `Cc1ccc(NC(=O)CCc2c(C)nn(-c3ccc(N4CCCCC4)nn3)c2C)cc1F`, which Potency is on record?
Its Potency is inconclusive: 39.8 µM [activator, single point].

With `O=C(NC1(C(F)(F)F)NC(=O)N(CCc2ccccc2)C1=O)c1ccccc1F` (stereo unspecified) as the compound, how does the max response, negative = inhibition read?
Its max response, negative = inhibition is inactive: -4.56%.

For `COc1ccc(N(CC(=O)NCc2ccc(C)cc2)S(=O)(=O)c2c(C)nn(C)c2C)cc1`, which Potency is on record?
Its Potency is inconclusive: 39.8 µM [activator, single point].

`COCCN(CCOC)S(=O)(=O)c1ccc(C(=O)Nc2nc(-c3ccncc3)cs2)cc1` was tested. Which Potency did it give?
Its Potency is inconclusive: 39.8 µM [activator, single point].

With `CCOC(=O)c1c(-c2ccc(C)cc2)csc1NC(=O)c1cc(=O)c2cc(C)c(C)cc2o1` as the compound, how does the max response, negative = inhibition read?
Its max response, negative = inhibition is inactive: 9.11%.

With `FC(F)(F)c1ccccc1-c1cc(NCc2cccs2)ncn1` as the compound, how does the max response, negative = inhibition read?
Its max response, negative = inhibition is inactive: 7.15%.

For `CCCc1cc(=O)[nH]c(Nc2cc(OC)ccc2OC)n1`, which Potency is on record?
The Potency was inconclusive: 31.6 µM [inhibitor, single point].

How did the max response, negative = inhibition turn out when `CON(C)c1nc(Oc2ccc(=O)[nH]n2)nc(N(C)C)n1` was run?
Its max response, negative = inhibition is inactive: -13.2%.

Which max response, negative = inhibition does the source give for `O=S(=O)(c1ccccc1)N1CCN(c2nc3ccccc3s2)CC1` here?
The max response, negative = inhibition was inactive: -3.88%.

For `O=C(Nc1cccnc1)/C(N=Nc1cccnc1)=C(\O)c1ccccc1`, which Potency is on record?
The Potency was inconclusive: 25.1 µM [activator, single point].

For `O=C(N/N=C/c1ccc2c(c1)OCO2)c1sc2cc(Cl)ccc2c1Cl`, which Potency is on record?
The Potency was inconclusive: 25.1 µM [inhibitor, single point].

How did the Potency turn out when `COC(=O)c1c(NC(=S)Nc2cc(OC)c(Cl)cc2OC)sc2c1CCCCC2` was run?
The Potency was active: 15.8 µM.

For `C=Cc1ccc(Cn2c(=O)n(-c3ccccc3C)c(=O)c3c4c(sc32)CN(C(C)=O)CC4)cc1`, which Potency is on record?
The Potency was inconclusive: 31.6 µM [activator, single point].

How did the max response, negative = inhibition turn out when `CCc1nn(CC(=O)Nc2c(C)cc(C)cc2C)c(=O)c2cc3sccc3n12` was run?
Its max response, negative = inhibition is inactive: -5.83%.

`COc1ccc(C)cc1NC(=O)CN1C(=O)CCc2cc(S(=O)(=O)N3CCOCC3)ccc21` was tested. Which Potency did it give?
Its Potency is inconclusive: 39.8 µM [activator, single point].

`O=C(Nc1ccc(Br)cc1)c1ccc(Br)c(S(=O)(=O)NCc2ccccc2)c1` was tested. Which Potency did it give?
Its Potency is inconclusive: 39.8 µM [inhibitor, single point].

For `O=C(O)/C=C\C(=O)N1Cc2cc3ccccc3nc2C1`, which max response, negative = inhibition is on record?
The max response, negative = inhibition was inactive: 4.53%.

Which Potency does the source give for `CC(=O)c1c(C)n(-c2cccc(C)c2)c2ccc(OC(=O)COc3ccccc3)cc12` here?
The Potency was inconclusive: 39.8 µM [inhibitor, single point].

With `CCOC(=O)c1c(C)c(C(=O)NCCc2ccc(OC)cc2)c(C)n1CC` as the compound, how does the max response, negative = inhibition read?
Its max response, negative = inhibition is inactive: -3.72%.

`CC(C)(C)C1CCc2c(sc3c2C(=O)NC(c2ccco2)N3)C1` (stereo unspecified) was tested. Which Potency did it give?
Its Potency is inconclusive: 20 µM [inhibitor, single point].

Which max response, negative = inhibition does the source give for `COc1cc(NC(=O)CCc2c(C)nc3c(c(C)nn3-c3ccccc3)c2C)cc(OC)c1OC` here?
Its max response, negative = inhibition is inactive: 2.94%.

With `COc1nc(NCCN2CCOCC2)nc(Nc2ccccc2)n1` as the compound, how does the max response, negative = inhibition read?
The max response, negative = inhibition was inactive: -0.581%.

For `Cc1ccc(NC(=O)COC(=O)/C=C/c2cccs2)c(C)c1`, which Potency is on record?
The Potency was inconclusive: 39.8 µM [inhibitor, single point].

`Cc1ccc(NC(=O)COc2ccc(CCO)cc2-n2nc3ccccc3n2)cc1C` was tested. Which Potency did it give?
The Potency was inconclusive: 39.8 µM [activator, single point].

With `CCc1ccc2c(CN3CCc4ccccc43)cc(=O)oc2c1` as the compound, how does the Potency read?
Its Potency is active: 31.6 µM.

How did the Potency turn out when `Cc1sc2nc(SCC(=O)NCc3ccco3)[nH]c(=O)c2c1C` was run?
The Potency was inconclusive: 31.6 µM [inhibitor, single point].

For `COc1ccc(-c2cc(C(F)(F)F)nc(NCc3ccco3)n2)cc1OC`, which Potency is on record?
The Potency was inconclusive: 31.6 µM [activator, single point].

For `O=C(CSc1nc2c([nH]c3ccccc32)c(=O)n1-c1ccc(F)cc1)N1CCCCCC1`, which max response, negative = inhibition is on record?
Its max response, negative = inhibition is inactive: 7.34%.

How did the Potency turn out when `COc1cc(/C=C2\SC(=S)N(Nc3ncc(C(F)(F)F)cc3Cl)C2=O)ccc1O` was run?
Its Potency is inconclusive: 39.8 µM [inhibitor, single point].

Which Potency does the source give for `COc1ccc(CSc2nc3ccncc3n2Cc2nc(-c3ccc(OC)c(OC)c3)oc2C)cc1` here?
Its Potency is inconclusive: 39.8 µM [activator, single point].

For `Cc1ccc(-c2nc(N)c3c(-c4ccc(C)cc4)nn(C(C)(C)C)c3n2)cc1`, which Potency is on record?
The Potency was inconclusive: 31.6 µM [inhibitor, single point].

For `COc1ccc(S(=O)(=O)c2cn(CC(=O)Nc3ccccc3)c3ccc(Cl)cc3c2=O)cc1`, which max response, negative = inhibition is on record?
The max response, negative = inhibition was inactive: -5.69%.

How did the Potency turn out when `Brc1ccc(C2Nc3cccc4cccc(c34)N2)s1` was run?
The Potency was inconclusive: 7.94 µM [inhibitor, partial curve].

`Cc1c(C(=O)NC(=S)Nc2ccc3c4c(cccc24)CC3)cccc1[N+](=O)[O-]` was tested. Which Potency did it give?
The Potency was inconclusive: 39.8 µM [inhibitor, single point].

How did the max response, negative = inhibition turn out when `Cc1ccccc1C(=O)Nc1nc2c(s1)CC(C(C)(C)C)CC2` (stereo unspecified) was run?
Its max response, negative = inhibition is inactive: 17.6%.

Which max response, negative = inhibition does the source give for `Cc1cc([N+](=O)[O-])ccc1NC(=O)CSc1nccn1C` here?
The max response, negative = inhibition was inactive: -3.14%.

`COc1ccccc1N1CCN(C(=O)C2c3ccccc3Oc3ccccc32)CC1` was tested. Which Potency did it give?
Its Potency is inconclusive: 39.8 µM [activator, single point].

For `CCCOC(=O)c1ccc(Cl)c(NC(=O)c2ccc(-c3ccccc3)cc2)c1`, which Potency is on record?
The Potency was inconclusive: 39.8 µM [inhibitor, single point].

With `CCOC(=O)c1c(-c2ccccc2)oc2ccc(NS(=O)(=O)c3ccccc3)cc12` as the compound, how does the max response, negative = inhibition read?
The max response, negative = inhibition was inactive: -26.3%.

Which Potency does the source give for `COc1ccc2c(=O)c(OC)c(-c3ccccc3)oc2c1` here?
The Potency was inconclusive: 39.8 µM [activator, single point].

With `COC(=O)c1cc2ccsc2n1Cc1nc(-c2cccc(Cl)c2)oc1C` as the compound, how does the Potency read?
Its Potency is inconclusive: 25.1 µM [inhibitor, single point].

Which Potency does the source give for `CCCn1c(CCC(=O)Nc2ccccc2Cc2ccccc2)nc2cc(S(=O)(=O)N3CCOCC3)ccc21` here?
Its Potency is inconclusive: 31.6 µM [activator, single point].

How did the max response, negative = inhibition turn out when `CCCC(=O)NCc1nc2cccnc2n1Cc1ccc(F)cc1` was run?
The max response, negative = inhibition was inactive: 1.27%.

Which Potency does the source give for `Cc1nnc(C)c2c(C)n(C(c3ccccc3)c3ccccc3)c(C)c12` here?
The Potency was inconclusive: 39.8 µM [inhibitor, single point].

With `CCCCN1CCc2c([nH]c3c(C)cccc23)C1=O` as the compound, how does the Potency read?
Its Potency is inconclusive: 31.6 µM [inhibitor, single point].

With `Cc1ccc(OC/C(O)=C(\C#N)c2nc3ccccc3s2)cc1` as the compound, how does the Potency read?
The Potency was active: 20 µM.

For `CCOC(=O)c1noc2ncn(CC(=O)Nc3ccc(OC)c(Cl)c3)c(=O)c12`, which max response, negative = inhibition is on record?
The max response, negative = inhibition was inactive: 10%.

With `CCOc1ccc(CC(=O)NCCS(=O)(=O)N2CCN(c3ccccc3OC)CC2)cc1` as the compound, how does the Potency read?
Its Potency is inconclusive: 31.6 µM [activator, single point].
